# Experimental data: PubChem BioAssay AID504832 (National Center for Advancing Translational Sciences (NCATS), 2011)
# The campaign covered roughly 310,000 compounds. About 18,000 (5.8%) were called active. This list was built around the results that the source calls inconclusive (neither active nor inactive); the mix of calls is not that of the screen. The call rests on the fitted dose curve; in most records, active means well fitted inhibition curve with a large enough effect; inconclusive means small, poorly fitted or top-dose-only effect, or another doubt; inactive means no such curve, though single readings can be large or run the other way. No potency is given beside an inconclusive call; the fits are too rough.
# Test: Primary qHTS for delayed death inhibitors of the malarial parasite plastid, 48 hour incubation
# Settings: P. falciparum luciferase growth in erythrocytes; series mostly up to 28.7 µM
# Procedure, shortened: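 Erythrocytes infected with P. falciparum carrying an integrated firefly luciferase reporter (2% hematocrit, 0.1% parasitemia final) were exposed to compounds in RPMI 1640 with 0.5% Albumax at 37 C, 5% CO2. Growth inhibition was scored as reduced luminescence.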
# Potency means the concentration at half of the fitted maximal effect; tags describe the fitted curve by direction and shape.
row,SMILES,Potency
1,O=C1C=C(c2ccc3[nH]ccc3c2)C[C@@H](c2ccc(F)cc2)C1,"inconclusive [inhibitor, single point]"
2,O=C(CNCC1CCCO1)Nc1ccc([N+](=O)[O-])cc1C(=O)Nc1ccccc1F (stereo not drawn),"inconclusive [inhibitor, partial curve, poor fit]"
3,Clc1ccc(CN(CC2CCCO2)C(c2cccs2)c2nnnn2C2CCCC2)cc1 (stereo not drawn),"inconclusive [inhibitor, partial curve, poor fit]"
4,COc1ccc(CC(=O)Nc2cccc(S(=O)(=O)N3CCCC3)c2)cc1OC,"inconclusive [inhibitor, partial curve]"
5,Cc1ccc(NC(=O)/C=C/c2ccc([N+](=O)[O-])s2)c(C)c1,active: 10.4 µM
6,O=C(N/N=C/c1ccc2c(c1)OCO2)c1ccc(NC(=O)c2ccc(F)cc2)cc1,active: 2.33 µM
7,C[C@H](NC(=O)[C@@H]1Cc2ccccc2CN1)C(=O)Nc1ccc2c(c1)OCO2,inactive
8,COc1ccc(-c2cn(-c3ccc(C)cc3)c(=O)n2CC(=O)Nc2ccc(OC)c(OC)c2)cc1,active: 14.7 µM
9,COc1ccc(N2CCN(CC(O)COC(c3ccccc3)c3ccccc3)CC2)cc1 (stereo not drawn),"inconclusive [inhibitor, partial curve, poor fit]"
10,CCOC(=O)C1CCN(C(=O)CNC(=O)c2nn(-c3ccc(OC)c(Cl)c3)c(=O)c3ccccc23)CC1,"inconclusive [inhibitor, single point]"
11,O=C1C=C(NC2CCCCC2)CCC1,active: 13.1 µM
12,COc1ccc(N2CCN(C(=O)CCN3C(=S)NC(C)(C)CC3C)CC2)cc1 (stereo not drawn),"inconclusive [inhibitor, partial curve, poor fit]"
13,CC1CCCC(NC(=O)C2c3ccccc3C(=O)N2Cc2cccs2)C1C (stereo not drawn),"inconclusive [inhibitor, single point]"
14,O=C(Nc1ccc(F)cc1)C1CCCN(S(=O)(=O)c2ccc3[nH]c(=O)ccc3c2)C1 (stereo not drawn),"inconclusive [inhibitor, partial curve, poor fit]"
15,COCCn1c(C)cc(C(=O)CSc2nc3ccccc3c(=O)[nH]2)c1C,inactive
16,COCCCn1c(C23CC4CC(CC(C4)C2)C3)n[nH]c1=S,"inconclusive [inhibitor, single point]"
17,Cc1cccc(N2CCN(S(=O)(=O)c3ccc4c(c3)NC(=O)CS4)CC2)c1C,"inconclusive [inhibitor, single point]"
18,CC1CC(C)CN(C(=O)CCNC(=O)c2ccccc2Cl)C1 (stereo not drawn),active: 0.928 µM
19,Cc1cccc(C(=O)n2cnnc2N)c1,active: 10.4 µM
20,O=C(O)CCc1nnc(SCC(=O)Nc2cccc(C(F)(F)F)c2)[nH]c1=O,inactive
21,Cc1cccc(CSCc2ccc(C(=O)NC3CCCC3)o2)c1,inactive
22,COc1ccc(N2CCN(C(=O)C3CCCN(S(=O)(=O)c4c(C)noc4C)C3)CC2)cc1 (stereo not drawn),"inconclusive [inhibitor, partial curve]"
23,O=C1NC(=Nc2ccccc2Cl)S/C1=C\c1cccc([N+](=O)[O-])c1O,"inconclusive [inhibitor, single point]"
24,O=C(NCCC1=CCCCC1)c1ccc(Cl)c(S(=O)(=O)Nc2ccccc2)c1,"inconclusive [inhibitor, single point]"
25,O=C(NNC(=O)c1ccco1)c1ccccc1,inactive

row,SMILES,Potency
1,CCN1CCN(C(c2cccs2)C(C)NS(=O)(=O)c2ccc(Br)cc2)CC1 (stereo not drawn),"inconclusive [inhibitor, partial curve]"
2,COc1ccccc1NC(=O)CCCn1c(=S)[nH]c2ccccc2c1=O,"inconclusive [inhibitor, full curve, poor fit]"
3,CC1(C)Oc2ccc3ccc(=O)oc3c2/C(=N/O)C1=O,"inconclusive [inhibitor, single point]"
4,Cn1c(-c2ccc3c(c2)OCO3)cnc1N,inactive
5,O=C(CCSc1ccc(F)cc1)Nc1ccc(-n2cnnn2)cc1,"inconclusive [inhibitor, single point]"
6,O=C1NCCN(Cc2ccoc2)C1CC(=O)N(CCO)Cc1ccccc1 (stereo not drawn),"inconclusive [inhibitor, single point]"
7,Cc1cccc(NC2=NC(C)(C)N=C(N)N2)c1,active: 0.0059 µM
8,Cc1cc(NC(=O)Nc2ccc(F)c(Cl)c2)no1,"inconclusive [inhibitor, single point]"
9,CCOC(=O)c1c(S(=O)(=O)Nc2ccccc2OCC)c(C)n(C)c1C,inactive
10,Cc1cc(Cl)c(S(=O)(=O)N2CCN(c3ccccn3)CC2)cc1OCC(N)=O,"inconclusive [inhibitor, partial curve]"
11,Cc1ccc2cc(CN(Cc3ccccc3)Cc3nnnn3C3CCCC3)c(=O)[nH]c2c1,"inconclusive [inhibitor, partial curve]"
12,CN1CCN(S(=O)(=O)c2cccc(C(=O)Nc3sccc3C(N)=O)c2)CC1,active: 13.1 µM
13,CCc1ccc(-n2c(=O)c3ccccc3n(CC(=O)NCc3ccco3)c2=O)cc1,"inconclusive [inhibitor, single point]"
14,O=C1C(=O)N(CCCc2ccccc2)c2ccccc21,"inconclusive [inhibitor, partial curve, poor fit]"
15,c1ccc(CN=C2NN=C(c3cc4ccccc4o3)CS2)cc1,"inconclusive [inhibitor, single point]"
16,COc1ccc(C2C(=O)N(CCc3ccccc3)CC(=O)N2C2CCCC2)cc1 (stereo not drawn),"inconclusive [inhibitor, single point]"
17,Cc1nnc(SCC(=O)Nc2nsc(-c3ccccc3)n2)s1,inactive
18,COc1ccc(Nc2nnc(-c3ccc(C)cc3)c3ccccc23)cc1C(=O)N1CCCCC1,active: 6.57 µM
19,Cc1cc(C(=O)N/N=C/c2ccc(Cl)c([N+](=O)[O-])c2)c(C)n1-c1ccc(F)cc1,active: 13.1 µM
20,COc1cc(NC(=O)c2ccc3snnc3c2)cc(OC)c1,inactive
21,CCS(=O)(=O)N1CCCC(C(=O)NCCCN2CCCC2=O)C1 (stereo not drawn),inactive
22,Cc1ccc(NC(=O)c2cc3ccccc3o2)nc1,inactive
23,CCC(=O)N(Cc1cc2cc(C)c(C)cc2[nH]c1=O)C1CCCCC1,"inconclusive [inhibitor, full curve]"
24,O=C(Oc1ccc(/C=N/NC(=O)c2ccco2)cc1)c1ccccc1,"inconclusive [inhibitor, single point]"
25,c1cncc(-c2nc(-c3ccc4c(c3)OCCO4)cs2)c1,inactive

row,SMILES,Potency
1,CC(=O)N1CCN(c2ccc(NC(=O)c3ccc(OCc4ccccc4)cc3)cc2)CC1,"inconclusive [inhibitor, partial curve, poor fit]"
2,Cc1ccc(Cl)cc1NC(=S)N(CCCN1CCN(C)CC1)Cc1ccco1,inactive
3,O=C(Cc1cccs1)N1CCN=C1SCc1ccc(Br)cc1,"inconclusive [inhibitor, full curve, poor fit]"
4,COCCCn1c(C(=O)NC2CCCCC2C)cc2c(=O)n3cccc(C)c3nc21 (stereo not drawn),"inconclusive [inhibitor, single point]"
5,C/C(=N\NC(=O)c1nonc1N)c1cccs1,inactive
6,COc1ccc2nc3c(cc2c1)c(NC(=O)CC(C)C)nn3CC(C)C,active: 5.22 µM
7,O=C(c1ccc(OC2CCN(Cc3ccc(F)cc3)CC2)cc1)N1CCCC1,"inconclusive [inhibitor, single point]"
8,COc1cccc(Nc2nnc(SCc3nc4ccccc4s3)s2)c1,inactive
9,O=C(COC(=O)/C=C/c1ccc(Cl)cc1)Nc1ccccc1-c1ccccc1,inactive
10,COc1ccc(N(CC(=O)NCc2ccccc2C)S(=O)(=O)c2ccccc2[N+](=O)[O-])c(OC)c1,"inconclusive [inhibitor, full curve, poor fit]"
11,COc1ccc(C(=O)CC(=O)c2ccc(OC)cc2)cc1,inactive
12,CCN(CC(=O)NCc1ccc(Cl)cc1)C(=O)CN1C(=O)NC(C)(c2ccccc2)C1=O (stereo not drawn),inactive
13,OC[C@H]1O[C@@H](O[C@@H]2[C@@H](CO)O[C@@](O)(CO)[C@H]2O)[C@H](O)[C@@H](O)[C@H]1O,inactive
14,CC(=O)Oc1ccc(C(=O)[C@H]2[C@H]3C(=O)N(c4ccc5ccccc5c4)C(=O)[C@H]3[C@@H]3C=CC=NN32)cc1,inactive
15,CCc1ccccc1OCC(=O)Nc1nc(-c2cccnc2)cs1,active: 4.15 µM
16,CC(/C=C1\SC(=S)N(CCC(=O)Nc2cccc(C(=O)O)c2)C1=O)=C\c1ccccc1,"inconclusive [inhibitor, partial curve]"
17,CCCN(CCC)c1nc2c(C)cccn2c(=O)c1/C=C1/SC(=S)N(Cc2ccco2)C1=O,active: 1.31 µM
18,O=C1C=C(Nc2cccc3cccnc23)c2ccccc2C1=O,active: 2.08 µM
19,O=C(NCC(=O)N1CCOCC1)c1ccc(Br)o1,inactive
20,O=C(CC(=O)NCCc1ccccc1)NCCc1ccccc1,inactive
21,O=C(Nc1cccc(NC(=O)c2cccc(Cl)c2)c1)c1cccnc1,"inconclusive [inhibitor, single point]"
22,S=c1[nH]nc(C2CCCCC2)n1/N=C/c1ccc(Cl)cc1,"inconclusive [inhibitor, single point]"
23,CCOc1ccccc1NC(=O)c1ccc(S(=O)(=O)N2CCCCC2)cc1,"inconclusive [inhibitor, single point]"
